SMILES strings stand for the structures.

The experiment concerns the target CD11a/CD18-ICAM-1 interaction (recombinant human LFA-1 / human 5 domain ICAM-Ig) (Homo sapiens, UniProt P05107+P20701). The conditions noted are these: PLM2(μM), PLM2 antibody capture format of LFA/ICAM assay.
With `CCCOC(=O)NC[C@H](NC(=O)c1c(Cl)cc(C(O)CCc2cccc(O)c2)cc1Cl)C(=O)O` (some centres unmarked) [Example 399], the IC50 worked out at 0.002 µM.

Turning to `CCCOC(=O)NCC[C@H](NC(=O)c1ccc(C(=O)NCc2cccc(O)c2)cc1Cl)C(=O)O` [Example 328], the 50% inhibitory concentration (IC50) amounted to 0.074 µM.

As for `C=CCOC(=O)NC[C@H](NC(=O)c1ccc(C(=O)NCC#Cc2cccc(O)c2)cc1Br)C(=O)O` [Example 339], the IC50 was 0.02 µM.

With `O=C(NCc1cccc(O)c1)c1ccc(C(=O)N[C@@H](Cc2ccc(O)cc2)C(=O)O)c(Cl)c1` [Example 354], the IC50 was 0.008 µM.

For the compound `COC(=O)NCCC[C@H](NC(=O)c1ccc(C(=O)NCc2cccc(O)c2)cc1Cl)C(=O)O` [Example 332], the IC50 came to 0.057 µM.

For the compound `CCC(=O)NCc1ccc(C(=O)NCCC[C@H](NC(=O)c2ccc(C(=O)NCc3cccc(O)c3)cc2Cl)C(=O)O)cc1` [Example 177], the IC50 is 0.006 µM.

For the compound `CC(=O)NCCC(=O)NC[C@H](NC(=O)c1ccc(C(=O)NCc2cccc(O)c2)cc1Cl)C(=O)O` [Example 160], the IC50 is 0.004 µM.

For `NC(=O)C[C@H](NC(=O)c1ccc(C(=O)NCC#Cc2cccc(O)c2)cc1Br)C(=O)O` [Example 338], the IC50 worked out at 0.06 µM.

Turning to `CCCC(=O)NCCC(=O)NCCC[C@H](NC(=O)c1ccc(C(=O)NCc2cccc(O)c2)cc1Cl)C(=O)O` [Example 182], the IC50 was 0.011 µM.

Take `CCC(=O)NCCC(=O)NC[C@H](NC(=O)c1ccc(C(=O)NCc2cccc(O)c2)cc1Cl)C(=O)O` [Example 159]: the IC50 came out at 0.017 µM.

Turning to `C=CCOC(=O)NCCCC[C@H](NC(=O)c1ccc(C(=O)NCc2cccc(O)c2)cc1Cl)C(=O)O` [Example 352], the IC50 was found to be 0.042 µM.

With `C[C@H](NC(=O)c1c(Cl)cc(OCCOc2cccc(O)c2)cc1Cl)C(=O)O` [Example 392], the IC50 was found to be 0.025 µM.

Take `CCC(=O)NCCC(=O)NCCC[C@H](NC(=O)c1ccc(C(=O)NCc2cccc(O)c2)cc1Cl)C(=O)O` [Example 181]: the IC50 was determined as 0.016 µM.

On to `C/C(=C\c1ccco1)C(=O)NCc1cc(Cl)c(C(=O)N[C@@H](CNC(=O)c2cccs2)C(=O)O)c(Cl)c1` [Example 301], for which the IC50 is 0.025 µM.

For `COC(CCc1cc(Cl)c(C(=O)N[C@@H](CC(N)=O)C(=O)O)c(Cl)c1)c1cccc(O)c1` (some centres unmarked) [Example 402], the IC50 came to 0.004 µM.

For the compound `NC(=O)CC(NC(=O)c1c(Cl)cc(CNC(=O)C=Cc2ccco2)cc1Cl)C(=O)O` (centres unmarked) [Example 274], the IC50 was found to be 0.006 µM.

Consider `CCC(=O)NCc1ccc(C(=O)NC[C@H](NC(=O)c2ccc(C(=O)NCc3cccc(O)c3)cc2Cl)C(=O)O)cc1` [Example 155], for which the IC50 is 0.006 µM.

Regarding `Cc1cc(C(=O)NCc2cccc(O)c2)cc(C)c1C(=O)NC(CC(N)=O)C(=O)O` (centres unmarked) [Example 303], the IC50 was determined as 0.005 µM.

On to `CC(CCc1cc(Cl)c(C(=O)N[C@@H](CC(N)=O)C(=O)O)c(Cl)c1)c1cccc(O)c1` (some centres unmarked) [Example 396], for which the IC50 worked out at 0.062 µM.

As to `C=CCOC(=O)NC[C@H](NC(=O)c1c(Cl)cc(CCC(O)c2cccc(O)c2)cc1Cl)C(=O)O` (some centres unmarked) [Example 401], the IC50 stood at 0.002 µM.

Consider `CC(=O)N1CCCC(C(=O)NCCC[C@H](NC(=O)c2ccc(C(=O)NCc3cccc(O)c3)cc2Cl)C(=O)O)C1` (some centres unmarked) [Example 166], for which the IC50 turned out to be 0.018 µM.

As for `CCCC(=O)NCc1cccc(C(=O)NCC[C@H](NC(=O)c2ccc(C(=O)NCc3cccc(O)c3)cc2Cl)C(=O)O)c1` [Example 199], the IC50 came out at 0.029 µM.

Turning to `CCC(=O)NCCC(=O)NCC[C@H](NC(=O)c1ccc(C(=O)NCc2cccc(O)c2)cc1Cl)C(=O)O` [Example 206], the IC50 came to 0.023 µM.

As for `O=C(NCc1cccc(O)c1)c1ccc(C(=O)NC(Cc2cccc(O)c2)C(=O)O)c(Cl)c1` (centres unmarked) [Example 360], the IC50 was determined as 0.018 µM.

On to `CC(=O)NCC(=O)NC[C@H](NC(=O)c1ccc(C(=O)NCc2cccc(O)c2)cc1Cl)C(=O)O` [Example 162], for which the IC50 came out at 0.004 µM.

`O=C(NCc1cccc(O)c1)c1ccc(C(=O)N[C@@H](CCNC(=O)C2CCCCN2)C(=O)O)c(Cl)c1` (some centres unmarked) [Example 197]: the IC50 worked out at 0.017 µM.

Take `CCCC(NC(=O)c1ccc(C(=O)N[C@@H](CC(N)=O)C(=O)O)c(Cl)c1)c1cccc(O)c1` (some centres unmarked) [Example 367]: the IC50 was 0.02 µM.

For `O=C(CC[C@H](NC(=O)c1ccc(C(=O)NCc2cccc(O)c2)cc1Cl)C(=O)O)Nc1ccccc1` [Example 440], the IC50 was found to be 0.068 µM.

For `O=C(C[C@H](NC(=O)c1ccc(C(=O)NCc2cccc(O)c2)cc1Cl)C(=O)O)Nc1ccccc1` [Example 436], the IC50 was 0.011 µM.

`CC(C)OC(=O)NCC[C@H](NC(=O)c1ccc(C(=O)NCc2cccc(O)c2)cc1Cl)C(=O)O` [Example 327]: the IC50 came to 0.07 µM.

On to `CC(=O)NCc1cccc(C(=O)NCC[C@H](NC(=O)c2ccc(C(=O)NCc3cccc(O)c3)cc2Cl)C(=O)O)c1` [Example 200], for which the IC50 amounted to 0.018 µM.

In the case of `O=C(NCCC[C@H](NC(=O)c1ccc(C(=O)NCc2cccc(O)c2)cc1Cl)C(=O)O)OC1CC1` [Example 330], the IC50 was 0.009 µM.

In the case of `Cc1cc(C(=O)NCc2cccc(O)c2)cc(C)c1C(=O)NC(CCCCN)C(=O)O` (centres unmarked) [Example 305], the IC50 was determined as 0.015 µM.

Take `C=CCOC(=O)NCCC[C@H](NC(=O)c1ccc(C(=O)NCc2cccc(O)c2)cc1Cl)C(=O)O` [Example 353]: the IC50 turned out to be 0.074 µM.

`CCCOC(=O)NC[C@H](NC(=O)c1ccc(C(=O)NCc2cccc(O)c2)cc1Cl)C(=O)O` [Example 231]: the IC50 is 0.003 µM.

On to `CC(=O)NCc1ccc(C(=O)NCCCC[C@H](NC(=O)c2ccc(C(=O)NCc3cccc(O)c3)cc2Cl)C(=O)O)cc1` [Example 226], for which the IC50 came out at 0.025 µM.

Turning to `CCC(=O)N1CCC(C(=O)NCC[C@H](NC(=O)c2ccc(C(=O)NCc3cccc(O)c3)cc2Cl)C(=O)O)CC1` [Example 193], the IC50 is 0.014 µM.

Turning to `O=C(NCc1cccc(O)c1)c1ccc(C(=O)N[C@@H](Cc2c[nH]c3ccccc23)C(=O)O)c([N+](=O)[O-])c1` [Example 378], the IC50 amounted to 0.007 µM.

`CCC(=O)NCC(=O)NCC[C@H](NC(=O)c1ccc(C(=O)NCc2cccc(O)c2)cc1Cl)C(=O)O` [Example 210]: the IC50 came to 0.022 µM.

For `CCCC(=O)N1CCC(C(=O)NCCCC[C@H](NC(=O)c2ccc(C(=O)NCc3cccc(O)c3)cc2Cl)C(=O)O)CC1` [Example 219], the IC50 is 0.018 µM.

`CCCNC(=O)OC[C@H](NC(=O)c1ccc(C(=O)NCc2cccc(O)c2)cc1Cl)C(=O)O` [Example 443]: the IC50 amounted to 0.01 µM.

For the compound `CCCC(=O)NCc1cccc(C(=O)NCCC[C@H](NC(=O)c2ccc(C(=O)NCc3cccc(O)c3)cc2Cl)C(=O)O)c1` [Example 174], the IC50 was 0.004 µM.

As to `C=CCOC(=O)NC[C@H](NC(=O)c1c(Cl)cc(CCC(O)c2cccc(Cl)c2)cc1Cl)C(=O)O` (some centres unmarked) [Example 403], the IC50 was 0.009 µM.

For `O=C(NCC#Cc1cccc(O)c1)c1ccc(C(=O)N[C@@H](Cc2c[nH]c3ccccc23)C(=O)O)c(Br)c1` [Example 309], the IC50 worked out at 0.057 µM.

On to `C=CCNC(=O)OC[C@H](NC(=O)c1ccc(C(=O)NCc2cccc(O)c2)cc1Cl)C(=O)O` [Example 442], for which the IC50 turned out to be 0.006 µM.

As to `NCCCC[C@H](NC(=O)c1ccc(CNC(=O)/C=C/c2ccco2)cc1Cl)C(=O)O` [Example 268], the IC50 came out at 0.019 µM.

With `CC(=O)NCc1ccc(C(=O)NC[C@H](NC(=O)c2ccc(C(=O)NCc3cccc(O)c3)cc2Cl)C(=O)O)cc1` [Example 157], the IC50 was 0.007 µM.
